“And” between values parts separate entries of the source, which are not always exact repeats. Equal values may be shown once. Screen size: about 410,000 compounds; about 5,000 (1.2%) were called active. Inconclusive results, whose numbers are uncertain, are shown with a selection of clear calls. Calls follow the shape of the dose curve; as a rule, active = well fitted inhibition curve with a large enough effect; inconclusive = small, poorly fitted or top-dose-only effect; inactive = no such curve, though single readings can be large or run the other way. A potency beside an inconclusive call is a rough fit, not a confirmed value.
Experiment: qHTS for Inhibitors of TGF-b; also: nearly all actives have a fitted effect of over 65% in size
Conditions: HepG2 CAGA-GFP TGF-b/SMAD3 reporter, GFP fluorescence, 18 h, TGF-beta stimulated, 500 pg/mL final; series mostly up to 46.1 µM; activity, negative = inhibition: at the top concentration
Method in brief: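 Using HEPG2 CAGA-GFP reporter cells at 1000 cells/well, we pinned test compounds, stimulated with recombinant TGF-beta (500 pg/mL final) and measured total well GFP after 18 h.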
% is scaled to controls: 0 for no effect and ±100 for the full control effect; potency is read from the fitted curve at half-maximal effect; tags tell the direction and shape of the fitted curve.

Structure (SMILES)	Potency	activity, negative = inhibition
COc1ccc2nc3ccccc3nc2c1N	inconclusive: 1.41 µM [inhibitor, full curve, poor fit]	
Cn1c(CN2CCN(C(=O)c3ccc(F)cc3)CC2)nc2cc([N+](=O)[O-])ccc21	inconclusive: 11.2 µM [inhibitor, partial curve, poor fit]	
C[C@H](CO)N1C[C@H](C)[C@@H](CN(C)C(=O)Nc2ccc(C(F)(F)F)cc2)Oc2c(NC(=O)C3CCCCC3)cccc2C1=O	inconclusive: 22.4 µM [inhibitor, partial curve, poor fit]	
CS(=O)(=O)N(Cc1ccccc1)c1ccccc1C(=O)O		inactive: -3.92%
COc1ccccc1CN1CCN(Cc2nc(-c3ccccc3)no2)CC1		inactive: -17.3%
CC[n+]1ccccc1/C=C/c1ccc(N(C)C)cc1	inconclusive: 1.12 µM [inhibitor, full curve]	
CCO[C@@H]1OC(C(=O)N2CCCCCCC2)=C[C@H](C2CCCCC2)[C@H]1CCCO	inconclusive: 12.6 µM [inhibitor, partial curve, poor fit]	
NS(=O)(=O)c1ccc(NC(=O)CSc2nc(Nc3ccccc3)nc(N3CCOCC3)n2)cc1		inactive: 1.11%
c1cnc2c(c1)ccc1cccnc12	inconclusive: 11.2 µM [inhibitor, partial curve, poor fit] and inconclusive: 2.24 µM [inhibitor, full curve, poor fit]	
Cc1c(C(=O)N2CCN(c3ccc(F)cc3)CC2)sc2ncnc(N3CCN(c4ccccn4)CC3)c12	inconclusive: 35.5 µM [inhibitor, single point]	
CC(/C=C/C=C/c1ccccc1)=N/NC(=O)C(O)c1ccccc1 (stereo not drawn)		inactive: 3.38%
CCOC(=O)C1CCCN(C(=O)c2ccc3c(c2)N(Cc2ccccc2F)C(=O)c2ccccc2S3=O)C1 (stereo not drawn)	inconclusive: 35.5 µM [inhibitor, single point]	
COc1ccc(NC(=O)c2cncc(Br)c2)cc1S(N)(=O)=O	inconclusive: 35.5 µM [inhibitor, single point]	
CC(OC(=O)c1ccc(NS(=O)(=O)c2ccc3[nH]c(=O)[nH]c3c2)cc1)C(N)=O (stereo not drawn)		inactive: 1.83%
COc1ccc(NC(=O)Nc2cccc3ccccc23)c(OC)c1		inactive: -2.13%
CC(=O)c1cccc(NC(=O)CCCSc2nc(-c3ccco3)cc(C(F)(F)F)n2)c1	inconclusive: 22.4 µM [inhibitor, single point]	
COc1cc2ccccc2cc1C(=O)NCC(c1cccs1)N(C)C (stereo not drawn)		inactive: 13.7%
O=S(=O)(c1cnc(Cl)c(Br)c1)N1CCc2ccccc21	inconclusive: 35.5 µM [inhibitor, single point]	
CC(=O)Nc1cc(C(F)(F)F)ccc1N1CCOCC1		inactive: 4.12%
CCC(CO)N=CC1=C(O)C(C(=O)c2ccccc2)CCC1=O (stereo not drawn)	inconclusive: 35.5 µM [inhibitor, single point]	
C[C@H](CO)N1C[C@H](C)[C@@H](CN(C)S(=O)(=O)c2ccccc2)Oc2ccc(NC(=O)NC3CCCCC3)cc2C1=O		inactive: -2.28%
CCCCn1c(SCc2ncc(-c3ccccc3)o2)nc2cc(S(N)(=O)=O)ccc21	inconclusive: 35.5 µM [inhibitor, single point]	
CC(=O)Nc1cc(-c2cccc(C(=O)NCCO)c2)cn2c(-c3ccc(F)c(Cl)c3)cnc12		inactive: -19.6%

Structure (SMILES)	Potency	activity, negative = inhibition
CCN(C(=O)c1cn(C)c(=O)c2ccccc12)c1cccc(C)c1		inactive: 9.95%
Cc1cc(C)nc(NC(=O)c2cc(-c3ccc(C)s3)nc3ccccc23)c1		inactive: -24.5%
CCCCn1c(N)c(N(CC(C)C)C(=O)c2ccc(-c3ccc([N+](=O)[O-])cc3)o2)c(=O)[nH]c1=O	inconclusive: 0.631 µM [inhibitor, partial curve, poor fit]	
Cc1ccn2cc(C(=O)Nc3ccc4c(c3)OCCO4)nc2c1		inactive: -6.23%
CCc1ccc(N(CC)C(=O)c2sc3nc4n(c(=O)c3c2C)CCCC4)cc1	inconclusive: 8.91 µM [inhibitor, partial curve]	
Cc1ccc(S(=O)(=O)N2CCc3ccccc3C2)cc1C		inactive: -19%
COc1ccc(NC(=O)CN(C)Cc2c(F)cccc2Cl)cc1S(=O)(=O)N1CCCCC1		inactive: 2.78%
CCOC(=O)C1=CC[C@]2(C)c3c(c4ccccc4n3C)C(=O)C1N2C		inactive: -1.86%
COc1ccc(-c2noc(CCC(=O)NCCCN3CCC(Cc4ccccc4)CC3)n2)cc1	inconclusive: 14.1 µM [inhibitor, single point]	
CCOC(=O)N1CCC(N2Cc3cccc(C(=O)Nc4ccc(F)cc4)c3C2=O)CC1		inactive: 3.21%
CSCCC(NS(=O)(=O)c1ccc(Cl)cc1)C(=O)OCC(=O)NC12CC3CC(CC(C3)C1)C2 (stereo not drawn)	inconclusive: 31.6 µM [inhibitor, single point]	
CN1CCN(C(=O)c2ccc3c(c2)N(Cc2ccc(Cl)cc2)C(=O)c2ccccc2S3(=O)=O)CC1	inconclusive: 0.112 µM [inhibitor, full curve, poor fit]	
O=C(c1ccccc1Br)N(Cc1ccccc1F)C1CCS(=O)(=O)C1 (stereo not drawn)		inactive: -3.97%
CCC(C)NC(=O)CSCc1nc(-c2ccc(C)cc2)oc1C (stereo not drawn)	inconclusive: 12.6 µM [inhibitor, partial curve]	
C(=N\Nc1nncc2ccccc12)/c1ccccn1	inconclusive: 7.08 µM [inhibitor, partial curve, poor fit]	
CCOC(=O)C1(C(=O)OCC)COC(=O)C1CN1Cc2cc3ccccc3nc2C1 (stereo not drawn)	inconclusive: 25.1 µM [inhibitor, single point]	
CCOC(=O)C1CCN(C(=O)CSc2cc(=O)n(CC)c3ccccc23)CC1		inactive: 2.08%
CN(NC(=O)Nc1ccccc1)c1cnn(C)c(=O)c1Cl	inconclusive: 35.5 µM [inhibitor, single point]	
O=C(N/N=C/c1ccc(O)c2ncccc12)c1cccc(Br)c1	active: 12.6 µM	
CCn1cc(S(=O)(=O)Nc2cc(F)ccc2C)cn1	inconclusive: 35.5 µM [inhibitor, single point]	
O=C(CCNC(=O)c1ccccc1Cl)Nc1nc(-c2ccc(F)cc2)cs1	inconclusive: 35.5 µM [inhibitor, single point]	
Cc1ccc(NC(=O)CCN2C(=O)NC3(CCCC3)C2=O)cc1		inactive: -0.156%
CN(C)c1ccc(CC(=O)N2CCCC(c3cc(C(=O)Nc4ccc5c(c4)OCO5)no3)C2)cc1 (stereo not drawn)		inactive: -9.47%

Structure (SMILES)	Potency	activity, negative = inhibition
Cc1cc2n(n1)C(c1c[nH]c3ccccc13)Nc1ccccc1-2 (stereo not drawn)	inconclusive: 35.5 µM [inhibitor, single point]	
O=C(Nc1nc2ccc([N+](=O)[O-])cc2s1)c1ccc(S(=O)(=O)N2CCCc3ccccc32)cc1	inconclusive: 3.98 µM [inhibitor, partial curve, poor fit]	
CC(=O)Nc1ccc(S(=O)(=O)NCC(=O)OCC(=O)NC23CC4CC(CC(C4)C2)C3)cc1	inconclusive: 6.31 µM [inhibitor, single point]	
CCOC(=O)c1c(NC(=O)c2ccn(CC)n2)sc2c1CCCC2		inactive: -46.1%
COC(=O)[C@H](CC(C)C)N(Cc1ccccc1)S(=O)(=O)N(Cc1ccc(OC)cc1)[C@@H](CC(C)C)C(=O)OC	inconclusive: 7.08 µM [inhibitor, partial curve]	
Oc1ccc(Br)cc1C1C=C(c2ccc3c(c2)OCO3)NC(c2cccc(F)c2)N1 (stereo not drawn)	inconclusive: 35.5 µM [inhibitor, single point]	
O=C(Cn1c(=O)n(-c2ccccc2)c(=O)c2ccc(C(=O)NCc3ccc4c(c3)OCO4)cc21)Nc1ccc(F)c(Cl)c1		inactive: 3.43%
O=C(CSc1nc2ccccc2c(=O)n1CCCO)Nc1ccc2c(c1)OCCO2		inactive: 10.3%
O=C(c1cccc2ccccc12)N1CCN(CC2CC=CCC2)CC1 (stereo not drawn)	inconclusive: 12.6 µM [inhibitor, partial curve, poor fit]	
O=C(NCc1cccnc1)C(=O)NCC(c1ccco1)N1CCN(c2ccccc2F)CC1 (stereo not drawn)		inactive: -2.68%
O=C(CSc1nc2cc(Cl)ccc2s1)NCC1CCCO1 (stereo not drawn)		inactive: 0.753%
O=C(C1CCN(C2CC(=O)N(c3cccc(Cl)c3)C2=O)CC1)N1CCCC1 (stereo not drawn)	inconclusive: 6.31 µM [inhibitor, single point]	
c1ccc(CN2CCN(C(c3ccccc3)c3ccccc3)CC2)cc1		inactive: -21.2%
O=C1c2ccccc2C(Nc2ccc(S(=O)(=O)N3CCCCC3)cc2)N1Cc1ccco1 (stereo not drawn)	inconclusive: 35.5 µM [inhibitor, single point]	
CCOC(=O)C1CCN(CC(O)COc2ccc(C(C)(C)CC)cc2)CC1 (stereo not drawn)	inconclusive: 17.8 µM [inhibitor, single point]	
O=C(Cn1c(SCC(=O)Nc2ccc(F)cc2)nc2ccccc21)NCc1ccc(Cl)cc1	active: 12.6 µM	
CC(=O)c1ccc(N2C(=O)Nc3ccccc3S2(=O)=O)cc1		inactive: 5.3%
Cc1ccc(CSc2cn(CCNC(=O)c3cccs3)c3ccccc23)cc1	inconclusive: 2.24 µM [inhibitor, full curve]	
O=C(NC(=S)Nc1ccc(NC(=O)c2ccco2)cc1)c1ccccc1	inconclusive: 6.31 µM [inhibitor, single point]	
COc1ccccc1N1CCN(Cc2ccc(O)c3ncccc23)CC1	inconclusive: 1.78 µM [inhibitor, full curve, poor fit]	
Cc1ccc(NC(=S)NCC2CCN(C(C)c3ccccc3)C2)cc1C (stereo not drawn)	inconclusive: 10 µM [inhibitor, partial curve, poor fit]	
NC(=O)c1ccc(C(=O)N/N=C/c2cccc(Oc3ccccc3)c2)cc1	inconclusive: 3.98 µM [inhibitor, single point]	
